These results are taken from ChEMBL document CHEMBL4888484, “Replenishing the malaria drug discovery pipeline: Screening and hit evaluation of the MMV Hit Generation Library 1 (HGL1) against asexual blood stage Plasmodium falciparum ,using a nano luciferase reporter read-out” (2022).

About 540 (0.36%) of roughly 150,000 compounds showed an effect of 50% or more. Some of the results follow.

The experiment concerns Plasmodium falciparum. The experiment in a line: Primary screen in NF54 nanoGlo assay, in single point, at 2uM, 72h; a lower Z score goes with more inhibition. The format is functional, Erythrocyte. The settings on record: timepoint 72 hour.
For orientation: % Inhibition means the drop in the measured response relative to a control, in per cent. For the compound `COc1ccc(CNC(=O)c2noc3c2CCc2ccccc2-3)cc1`, the “% Inhibition” value is on record as 2% and the Z score is reported as -0.19.
For `CC1(C)CN(C(=O)c2ccc(CNS(C)(=O)=O)o2)C1(C)C`, the “% Inhibition” value came out at 2% and the Z score was -0.26.
Taken in the same sequence, the figures for `COCC1(NC(=O)c2ccc3nc(-c4ccc(F)cc4)cn3c2)CCCC1` were 1% and -0.11.
As for `CCc1nc(C(C)C)ccc1C(=O)N(C)Cc1nncn1C`, the “% Inhibition” value was -4% and the Z score was 0.61.
Taken in the same sequence, the figures for `CN(CCO)[C@H]1CN(C(=O)c2ccccc2-c2ccccc2)C[C@@H]1O` were 7% and -1.38.
For `Cc1cccc(N2CCN(c3nc(-c4ccc(Oc5ccccc5)cc4)nc4ccccc34)C[C@@H]2C)c1`, the “% Inhibition” value worked out at 6% and the Z score was -0.89.
Taken in the same sequence, the figures for `O=C(Nc1ccccc1)C1CCN(C(=O)c2nc(N3CCOCC3)ncc2Cl)CC1` were -12% and 2.17.
Taken in the same sequence, the figures for `O=C(NS(=O)(=O)c1ccc2nc[nH]c(=O)c2c1)C1CC2CCC1C2` (stereo unspecified) were 9% and -1.39.
With `COCCn1nnc2c1CCN(C(=O)N[C@H]1CCc3ccccc31)C2`, the “% Inhibition” value is -5% and the Z score is 0.93.
Taken in the same sequence, the figures for `CC1(C)C(O)CC1NC(=O)C1CCC(=O)CC1` (stereo unspecified) were -7% and 1.06.
With `COCCc1noc([C@H](C)NC(=O)Cc2cccc(O)c2)n1`, the “% Inhibition” value was -12% and the Z score amounted to 1.52.
In the case of `c1ccc2[nH]c(Nc3nc4ccccc4s3)nc2c1`, the “% Inhibition” value came to 42% and the Z score is -2.98.
On to `O=C(C1COc2ccccc2O1)N1CCCC1c1nc2ccccc2s1` (stereo unspecified), for which the “% Inhibition” value is -14% and the Z score is on record as 1.77.
The like results for `CC(C)n1cnc(C(=O)NCC2CC(O)CN2Cc2ccccc2)c1` (stereo unspecified) were, in that order, -2% and 0.42.
The like results for `COCc1nc(CNC(C)=O)n(-c2ccncc2)n1` were, in that order, 9% and -1.19.
For the compound `CN(C)C(=O)c1cc(OCc2ccccc2)no1`, the “% Inhibition” value is recorded as 6% and the Z score is -0.91.
On to `Cc1[nH]ccc1C(=O)N1CCC2CCC(C1)N2C(C)C` (stereo unspecified), for which the “% Inhibition” value is -1% and the Z score was determined as 0.1.
Regarding `CC1CCCCC1NC(=O)CC1CCS(=O)(=O)C1` (stereo unspecified), the “% Inhibition” value was -6% and the Z score worked out at 0.76.
Take `COCC(=O)N1CCCc2ccc(NC(=O)NCc3ccc(OC)c(OC)c3)cc21`: the “% Inhibition” value was -2% and the Z score worked out at 0.2.
On to `Cc1cn(C(C)(C)C(=O)Nc2ccn(CC(=O)O)n2)nc1C(F)(F)F`, for which the “% Inhibition” value is reported as -5% and the Z score stood at 0.77.
Taken in the same sequence, the figures for `CCN1C(=O)Cc2c(C)nc(-c3ccc(OC)cc3)nc21` were -3% and 0.39.
The like results for `CCOC(=O)c1nnn(CC(N)=O)c1-c1ccc2c(c1)OCO2` were, in that order, 10% and -1.31.
For `CCCOC1(CNC(=O)c2cccc3nn[nH]c23)CCCCC1`, the “% Inhibition” value is -13% and the Z score is given as 1.83.
`CC1CCN(Cc2ccc(-c3ncnn3-c3cccnc3)o2)CC1`: the “% Inhibition” value is -12% and the Z score turned out to be 1.59.
Taken in the same sequence, the figures for `O=C(Cc1n[nH]c2c1CCCC2)N[C@H]1CCCOc2c(Cl)cccc21` were -6% and 1.13.
In the case of `NC(=O)c1ccc(CN2CCN(C(=O)C3=CCCC3)CC2)cc1`, the “% Inhibition” value was -6% and the Z score is on record as 0.74.
Taken in the same sequence, the figures for `O=S(=O)(Nc1cc(-c2c(O)ccc3ccccc23)c(O)c2ccccc12)c1ccccc1` were -15% and 2.52.
As for `CC1(C)Cc2cccc(OCCNC(=O)c3nc(N4CCOCC4)ncc3Cl)c2O1`, the “% Inhibition” value was -9% and the Z score is on record as 1.47.
Taken in the same sequence, the figures for `COCCNC(=O)Nc1ccc(N2CC(OC)C2)cc1` were -17% and 2.66.
Taken in the same sequence, the figures for `O=S1(=O)CC(CS(=O)(=O)N[C@@H]2COc3ccccc3C2)C1` were -3% and 0.61.
With `Cc1onc(C(=O)N2CC3(C2)C[C@](C)(O)CO3)c1CN1CCOCC1`, the “% Inhibition” value was found to be 2% and the Z score is -0.35.
As to `CC(C)c1cccc(C(=O)N2CCC[C@H](C)CC2)n1`, the “% Inhibition” value is recorded as -5% and the Z score amounted to 0.98.
The like results for `Cc1cccnc1C[C@H](C)NC(=O)c1nc(C(C)C)cs1` were, in that order, -2% and 0.37.
As to `Cc1ccnn1CC(=O)N1CC[C@H](c2ccc3c(c2)OCO3)[C@@H](O)C1`, the “% Inhibition” value is given as -6% and the Z score turned out to be 1.12.
With `Cc1cccnc1-c1noc(C2(O)CCCCC2)n1`, the “% Inhibition” value is -8% and the Z score was 0.79.
Taken in the same sequence, the figures for `CN(Cc1nnc[nH]1)S(=O)(=O)N1CCC2(CCCCC2)CC1` were -8% and 1.46.
Taken in the same sequence, the figures for `Cc1nn(C)c(C)c1NC(=O)c1cc2c(C)nn(-c3ccccc3)c2s1` were -8% and 1.72.
Taken in the same sequence, the figures for `O=C(c1ccnc(OCC2CC2)c1)N1CCCC1` were -12% and 2.33.
For `Cc1cccc(C(=O)N2CCC(c3c[nH]cn3)CC2)c1C`, the “% Inhibition” value is recorded as 2% and the Z score was -0.2.
Consider `O=S(=O)(CCC(F)(F)F)NC[C@@H](c1ccco1)n1cccn1`, for which the “% Inhibition” value came out at 5% and the Z score is listed as -0.7.
As for `c1coc(-c2nc(CN3CCN(c4nccs4)CC3)cs2)c1`, the “% Inhibition” value is reported as -4% and the Z score is recorded as 0.76.
The like results for `Cc1ccc(C(=O)N2C[C@H]3CCC[C@@H](C3)C2)cc1O` were, in that order, -15% and 1.37.
Taken in the same sequence, the figures for `CNC(=O)c1ccc(CN(C)[C@@H](C)c2ncc(C(C)(C)C)o2)o1` were -1% and 0.13.
